# This is one part of the list. The energies were worked out here from pooled read counts, against the library average; single values are noisy.
# Target: T1, Pho4 (S. cerevisiae) (UniProt P07270)
# T1 sequence: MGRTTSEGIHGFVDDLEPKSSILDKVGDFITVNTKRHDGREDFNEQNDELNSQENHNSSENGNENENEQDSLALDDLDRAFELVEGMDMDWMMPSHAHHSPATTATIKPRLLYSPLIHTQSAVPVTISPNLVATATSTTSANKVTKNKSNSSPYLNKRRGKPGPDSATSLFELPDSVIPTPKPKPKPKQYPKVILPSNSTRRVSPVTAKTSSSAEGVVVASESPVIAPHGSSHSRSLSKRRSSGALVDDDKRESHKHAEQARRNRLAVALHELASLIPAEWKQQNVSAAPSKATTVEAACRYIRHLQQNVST
# Test: relative binding free energy (BET-seq); higher = weaker binding
# Settings: reference: library average
row,Sequence,relative binding free energy [kcal/mol]
1,CTAGTCACGTGGGTTA,-0.12
2,TGCCTCACGTGTGTGT,0.17
3,GGTGACACGTGGCGGT,-0.17
4,AAGGTCACGTGATATA,0.15
5,TTGGTCACGTGTTGCT,0.13
6,TGTTGCACGTGTTAAG,-0.02
7,TGATTCACGTGTAGCG,0.37
8,GGGGACACGTGATACT,0.35
9,TTAAGCACGTGTGATG,-0.01
10,CCTTGCACGTGTTGGT,0.15
11,CTTCTCACGTGAGGGT,0.29
12,TGGTGCACGTGTGAAG,0.01
13,GTGGGCACGTGCTTCG,-0.15
14,GGGGTCACGTGCCATG,0.04
15,GTTCTCACGTGAGTGG,0.38
16,CGGTACACGTGTTATA,0.06
17,CTAGGCACGTGGGTAG,-0.44
18,AATAGCACGTGTAATT,-0.08
19,CAGGACACGTGTGGAT,0.09
20,AGGTTCACGTGGGCTT,0.11
21,GTTGACACGTGGTTGG,0.03
22,ACGTACACGTGAGGGG,0.16
23,GGTGCCACGTGCGGGG,-0.13
24,TGGGGCACGTGGATGG,0.03
25,TGAGACACGTGTCTGT,-0.1
26,TGCAGCACGTGGTAGT,-0.29

row,Sequence,relative binding free energy [kcal/mol]
1,GTTATCACGTGGGCGT,0.06
2,GGTAACACGTGTGGTG,0.14
3,ACGTACACGTGTGTTA,0.13
4,ATGGGCACGTGGTCGA,-0.12
5,TGATGCACGTGATCGG,0.02
6,TGGGGCACGTGAGGCA,0.06
7,ATGGGCACGTGACTGT,0.03
8,GTTTTCACGTGTCGGG,0.32
9,TATAGCACGTGTGGGT,-0.02
10,GATTACACGTGGGTGG,0.09
11,TTCGGCACGTGCGCGG,-0.29
12,ATATTCACGTGTAGCG,0.16
13,TACTTCACGTGTTAGT,0.26
14,TTTGGCACGTGTTTTT,-0.01
15,GGCTTCACGTGTGATC,0.4
16,GTAAGCACGTGAGTCT,0.18
17,GTTGTCACGTGAAGTG,0.24
18,GAAGTCACGTGTGAAG,0.24
19,TGTTTCACGTGCATGT,0.28
20,AAGTTCACGTGTTACG,0.43
21,TTAAACACGTGCGTTT,0.11
22,GGTGACACGTGTGCTT,0.18
23,GACGTCACGTGGTGTA,0
24,AGCTGCACGTGATAGT,0.21
25,GGGCGCACGTGATGGT,0.13
26,GTTATCACGTGTAGGG,0.21

row,Sequence,relative binding free energy [kcal/mol]
1,AGTTTCACGTGGAACT,0.38
2,TTCATCACGTGGGGGA,0.08
3,CTTTCCACGTGGTGTT,-0.14
4,TGGGACACGTGGGATC,-0.01
5,TCAGTCACGTGATGGG,0.16
6,GGGCTCACGTGCGAGT,0.29
7,AATGGCACGTGGAGGG,-0.02
8,ACGGGCACGTGAAAGT,0.07
9,TGCAGCACGTGTGGGA,-0.04
10,TACCGCACGTGTTGGT,-0.07
11,TATGGCACGTGGTACT,-0.17
12,AACTGCACGTGGTGGT,-0.05
13,AAGGGCACGTGATAGT,0.01
14,CGGTGCACGTGGTAGA,-0.19
15,TGTGACACGTGTCTTG,0
16,TATTGCACGTGTATTG,-0.02
17,GTATACACGTGCGTTG,0.01
18,GTGGCCACGTGCAAGG,-0.12
19,AGCTACACGTGGGGAG,-0.06
20,AGCGTCACGTGTTAGA,0.09
21,GGGTGCACGTGCTCGT,-0.08
22,CCGGTCACGTGGGGAG,-0.05
23,GGGTGCACGTGTTCGT,0.09
24,GCTGTCACGTGAAGTA,0.33
25,TTAGTCACGTGGCCGT,0.2
26,AGTATCACGTGTATAT,0.18

row,Sequence,relative binding free energy [kcal/mol]
1,AGTATCACGTGGACGT,0.27
2,TATCGCACGTGTGATT,0.1
3,GGTTTCACGTGCAGAG,0.39
4,TATAGCACGTGGGACG,-0.19
5,GAATACACGTGGGGTG,-0.07
6,GATCTCACGTGGGGGA,0.21
7,TTCGACACGTGAGGAT,0.28
8,CGTAGCACGTGGAAGG,-0.04
9,AGAGGCACGTGTGTTT,-0.02
10,ATATTCACGTGAATTT,0.4
11,AGTAGCACGTGACGGT,0.01
12,TATAGCACGTGTTTGC,-0.24
13,TGGGGCACGTGCGATG,-0.13
14,CTTTTCACGTGAGCGT,0.17
15,TGTGACACGTGAGGAA,0.26
16,GTTAGCACGTGAGATT,0.31
17,TAGGCCACGTGATTTT,0.12
18,GTATTCACGTGGATAA,0.31
19,CGTTTCACGTGAGGGT,0.28
20,TTAAGCACGTGGGGTA,-0.17
21,GACGGCACGTGGAGTT,0.07
22,TCAGACACGTGTAGTG,0.03
23,TGGCGCACGTGTGCGT,-0.1
24,GGCGCCACGTGGGTAG,-0.09
25,TTTGGCACGTGGGCTA,-0.16
26,GTTGTCACGTGGTGCG,0.11

row,Sequence,relative binding free energy [kcal/mol]
1,ATTGACACGTGGTTGA,-0.02
2,CGGTGCACGTGGAATG,-0.02
3,GTCTGCACGTGCCGGG,0
4,TGTTACACGTGTTGAG,0.27
5,TGGGGCACGTGATAGG,0.04
6,ATACTCACGTGGTAGG,0.05
7,TCTTGCACGTGGTGGG,0
8,GGGCACACGTGGGTCT,-0.12
9,TTTAGCACGTGTGACG,-0.12
10,GTAGACACGTGAGATA,0.4
11,AGAGGCACGTGGGCAA,-0.26
12,AGGTCCACGTGGGTAT,-0.11
13,GCTTTCACGTGTAGGA,0.15
14,ACTTTCACGTGTGGGT,0.31
15,TTTGACACGTGGGGAC,-0.01
16,TTTCCCACGTGGTGTT,-0.03
17,GGCGGCACGTGAGGTG,0.17
18,TAGGACACGTGGTGTA,-0.13
19,AGGTTCACGTGCGGTC,0.45
20,TCCTTCACGTGGTAGG,0.27
21,GTGCTCACGTGCTTGG,0.19
22,CATGGCACGTGGTGAT,-0.29
23,TGAAACACGTGTAGGT,0.02
24,CGAGGCACGTGATGGA,0.13
25,ACGAGCACGTGGGTGG,-0.22
26,CTTTCCACGTGTTTTA,0.07

row,Sequence,relative binding free energy [kcal/mol]
1,CGGGGCACGTGGACTG,-0.17
2,AAAAGCACGTGGTTTA,-0.03
3,TTGTTCACGTGTCTTC,0.17
4,CATTACACGTGAAGGT,0.32
5,AGAGTCACGTGAGGGA,0.23
6,TTTCACACGTGGGGCG,-0.17
7,ATAAACACGTGATGTG,0.08
8,AGGTACACGTGTTCGT,0.03
9,TGGGTCACGTGCATAA,0.07
10,TGTCTCACGTGGTCGG,0.18
11,CTGTGCACGTGGGGGA,-0.3
12,CATAGCACGTGGGGGT,-0.26
13,ACTTGCACGTGAGGTG,0.13
14,TATGGCACGTGAGGGC,0.02
15,CGTGACACGTGTGATT,0.14
16,GCTTGCACGTGTGGGG,0.11
17,ATTATCACGTGTATGC,0.14
18,TTGGACACGTGGTAGG,0.08
19,TTGTGCACGTGAGGAT,0.15
20,GTTAACACGTGAGAAG,0.32
21,AGCTTCACGTGGGGAT,0.1
22,GTTAGCACGTGGGTGA,-0.15
23,AGTGGCACGTGACCGG,-0.14
24,TAGAGCACGTGGGAGA,-0.11
25,TAAGTCACGTGGCCGG,0.09
26,TTGACCACGTGGGTGT,-0.12

row,Sequence,relative binding free energy [kcal/mol]
1,GATCACACGTGAGGGG,0.33
2,TATAACACGTGAGGGT,0.28
3,GATTTCACGTGTAAGG,0.39
4,TCCTGCACGTGTGTGT,0.02
5,GGGAGCACGTGTTCTG,-0.18
6,GTGATCACGTGAGGAT,0.33
7,ATTTACACGTGGGATT,0.03
8,GGGGGCACGTGTTATA,-0.05
9,GGTTGCACGTGACAGG,0.16
10,TATTACACGTGGTTTC,0.13
11,GTAGACACGTGTTAAA,0.16
12,TAGTACACGTGAAGTT,0.32
13,TTGAGCACGTGTTGCG,-0.16
14,TAGTTCACGTGCGTCT,0.25
15,GCGGGCACGTGGTTCG,-0.21
16,TTTTACACGTGAGACT,0.16
17,CGAGGCACGTGGTTAA,0.05
18,ATCGTCACGTGGGTTA,0
19,TGGCTCACGTGGTGTA,0.07
20,TTTGTCACGTGATATT,0.28
21,GGCTTCACGTGATTGT,0.35
22,ATTTACACGTGACGTT,0.35
23,GTGATCACGTGGGCGT,-0.01
24,AGGGGCACGTGGTCAT,-0.24
25,TGGAGCACGTGGGTCT,-0.15
26,GTTGGCACGTGTAGTG,0.02

row,Sequence,relative binding free energy [kcal/mol]
1,AGTCTCACGTGTTGAT,0.26
2,ACGTGCACGTGTGATT,-0.06
3,GTCAGCACGTGGTTTG,-0.07
4,CGTGGCACGTGCGGAA,-0.1
5,GGTTACACGTGCTGTG,0.22
6,ATTTGCACGTGAGTAC,0.12
7,AGGTTCACGTGGGCGC,0.07
8,GTGGTCACGTGTGCTA,0.11
9,GTGTACACGTGTTGAC,0.1
10,ATGATCACGTGTTGTT,0.18
11,CGTTACACGTGTAAGT,0.21
12,GTGGCCACGTGATATG,0.02
13,TGGCTCACGTGTGCAT,0.17
14,TTTACCACGTGGTAAT,0.01
15,ATAGACACGTGGTTTA,-0.05
16,TGCGTCACGTGTTGTA,0.09
17,ATGTTCACGTGTTGAC,0.24
18,AGGAACACGTGGGGTT,-0.06
19,TTGGTCACGTGTCTCT,0.06
20,GTTGGCACGTGTACGA,0.07
21,TGTGTCACGTGGGGAC,0.01
22,CGTGGCACGTGGGTCA,-0.19
23,AGTGCCACGTGGGGTA,-0.38
24,GAATTCACGTGAAGGT,0.45
25,AATTTCACGTGGCGGG,0.23
26,GGGGTCACGTGAGTTA,0.42

row,Sequence,relative binding free energy [kcal/mol]
1,AATTCCACGTGTTTGG,0.04
2,GGTTTCACGTGGGATT,0.17
3,AGTGGCACGTGACGAG,-0.02
4,TAATTCACGTGATCGT,0.22
5,TTGCTCACGTGGAAGT,0.3
6,TTTGTCACGTGGTAAG,0.05
7,GTTAACACGTGTTGAA,0.26
8,AGGATCACGTGAGTTT,0.42
9,GTAATCACGTGATTGA,0.24
10,GGAATCACGTGGGGAA,0.18
11,GATGTCACGTGCACGG,0.19
12,GGTACCACGTGTGGGA,-0.03
13,GGAGGCACGTGGGGTC,-0.12
14,GTGAACACGTGGGATG,-0.21
15,AGGGTCACGTGTTCGT,0.07
16,GGCATCACGTGTTTTT,0.17
17,TAGCACACGTGTTGGG,0.18
18,ATGAACACGTGAAGTG,0.13
19,TTTTGCACGTGCAGAT,-0.17
20,GAGGACACGTGCGGTG,-0.04
21,CTTAGCACGTGGTTGG,-0.2
22,ACTATCACGTGAGGTG,0.26

# From the BET-seq Pho4 binding data (Le et al. 2018)
